Test results taken from PubChem BioAssay AID588591 (National Center for Advancing Translational Sciences (NCATS), 2011).
The campaign covered roughly 390,000 compounds. About 4,700 (1.2%) were called active. Inconclusive results, whose numbers are uncertain, are shown with a selection of clear calls. Calls come from the whole dose curve; as a rule, active = well fitted inhibition curve with a large enough effect; inconclusive = small, poorly fitted or top-dose-only effect, or another doubt; inactive = no such curve, though single readings can be large or run the other way. Potencies of inconclusive entries are doubtful fits and often do not repeat.

The compounds below were run against DNA polymerase eta (Homo sapiens) (UniProt Q9Y253) (assay: qHTS for Inhibitors of Polymerase Eta). Conditions: recombinant Pol eta, fluorescent DNA replication assay; series mostly up to 114 µM; activity change, negative = inhibition: at the top concentration.
In short: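 Pol eta at 10 nM preincubated with compounds 15 min at room temperature; reaction started with fluorescent substrate (50 nM final) and read kinetically at 0 and 10 min.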
% is set by controls: 0 for no effect and ±100 for the full control effect; potency is the fitted concentration of half-maximal effect; tags give direction and shape of the fitted curve.

Sequence of UniProt Q9Y253 (Q9Y253 whole entry, looked up): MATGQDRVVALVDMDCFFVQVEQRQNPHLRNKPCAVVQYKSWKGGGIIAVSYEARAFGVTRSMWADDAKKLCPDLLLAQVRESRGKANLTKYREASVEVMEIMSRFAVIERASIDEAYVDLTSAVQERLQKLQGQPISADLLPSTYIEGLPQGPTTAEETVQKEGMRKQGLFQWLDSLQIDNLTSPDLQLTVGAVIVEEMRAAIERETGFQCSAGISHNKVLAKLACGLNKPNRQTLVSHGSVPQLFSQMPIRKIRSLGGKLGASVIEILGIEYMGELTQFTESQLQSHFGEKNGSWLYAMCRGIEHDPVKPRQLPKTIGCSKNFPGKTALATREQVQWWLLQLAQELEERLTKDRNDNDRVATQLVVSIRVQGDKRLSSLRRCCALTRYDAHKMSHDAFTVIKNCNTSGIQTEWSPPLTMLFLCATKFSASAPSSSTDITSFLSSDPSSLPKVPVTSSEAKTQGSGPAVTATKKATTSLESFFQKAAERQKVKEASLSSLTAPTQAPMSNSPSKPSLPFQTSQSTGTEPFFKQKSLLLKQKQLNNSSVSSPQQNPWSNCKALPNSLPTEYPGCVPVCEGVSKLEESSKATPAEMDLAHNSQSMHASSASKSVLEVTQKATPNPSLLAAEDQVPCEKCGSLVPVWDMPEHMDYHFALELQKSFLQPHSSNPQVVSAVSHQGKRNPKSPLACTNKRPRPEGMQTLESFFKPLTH

Row | SMILES | Potency | activity change, negative = inhibition
1 | Cc1cccc2c(N=NC(=O)c3ccc(NS(=O)(=O)c4cccs4)cc3)c(O)[nH]c12 | active: 11.2 µM | 
2 | O=C(Nc1ccc(F)cc1)c1ccc(-n2cnc3cccnc32)cc1 |  | inactive: -8.52%
3 | COc1ccc(CCN(Cc2ccccn2)C(=S)Nc2ccc(C)cc2)cc1OC | inconclusive: 89.1 µM [inhibitor, partial curve, poor fit] | 
4 | Cc1cc(NC(=O)c2cc(-c3ccncc3)nc3c(C)cccc23)no1 | inconclusive: 14.1 µM [inhibitor, partial curve] | 
5 | Cc1cccc(NC(=O)C(C)SCc2nc3sc(C)c(C)c3c(=O)[nH]2)n1 (stereo not drawn) | inconclusive: 39.8 µM [inhibitor, single point] | 
6 | Cc1ccc(N(C)C(=O)Cn2nc(Cc3ccncc3)c3ccccc3c2=O)cc1C |  | inactive: -1.5%
7 | CN1CCN(CCCNC(=O)c2cc3c(-c4ccc(Cl)cc4)nn(C)c3s2)CC1 |  | inactive: 3.55%
8 | COc1ccc(CN(C)C(=O)c2cc(S(=O)(=O)Nc3ccccc3F)ccc2C)c(OC)c1 |  | inactive: -4.43%
9 | CC1CCC(=O)N(CCOc2ccccc2)CC1 (stereo not drawn) | inconclusive: 89.1 µM [inhibitor, partial curve, poor fit] | 
10 | CCC1=NN2C(=N)/C(=C/c3ccc(OS(=O)(=O)c4ccc(C)cc4)c(OC)c3)C(=O)N=C2S1 | inconclusive: 56.2 µM [inhibitor, partial curve, poor fit] | 
11 | C/C=C/C=C/C(=O)N1CC2(CC(c3cccc(NC(=O)/C=C/C)c3)=NO2)C[C@@H]1C(N)=O (stereo partly drawn) | inconclusive: 15.8 µM [inhibitor, full curve, poor fit] | 
12 | Cc1cc(C)nc(Sc2ccc([N+](=O)[O-])cc2[N+](=O)[O-])n1 | inconclusive: 14.1 µM [inhibitor, partial curve, poor fit] | 
13 | COCCCNc1oc(-c2ccc(COc3ccccc3C)o2)nc1C#N |  | inactive: -8.62%
14 | CC1CN(C(=O)C(C)N2CCN(c3cccc(Cl)c3)CC2)CC(C)O1 (stereo not drawn) | inconclusive: 89.1 µM [inhibitor, single point] | 
15 | COc1cc(C(=O)N/N=C/c2cc([N+](=O)[O-])cs2)cc(OC)c1OC |  | inactive: -13.1%
16 | O=C(N/N=C\c1cn[nH]c1-c1ccccc1)c1ccc([N+](=O)[O-])cc1 | inconclusive: 25.1 µM [inhibitor, partial curve, poor fit] | 
17 | C=C1CC(Cn2cc(Br)c(=O)[nH]c2=O)(c2ccc(-c3ccccc3)cc2)OC1=O (stereo not drawn) | inconclusive: 14.1 µM [inhibitor, full curve] | 
18 | CC1CCN(S(=O)(=O)c2ccc(C(=O)NCc3cccnc3)cc2)CC1 | inconclusive: 35.5 µM [inhibitor, partial curve, poor fit] | 
